# Assay results reported in article PMC4336329 (PLoS ONE, 2015).
# Hit rate of the full screen: of about 310,000 compounds, about 14,000 (4.5%) showed an effect of 50% or more. The effect is printed as a negative number. This is one part of the list.
# Target: human ether-à-go-go-related gene (hERG) potassium channel (human, UniProt Q12809)
# Assay: primary screen, population patch clamp on CHO cells stably expressing hERG
# 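Note: peak tail current of the secondary pulse compared with the same well before compound.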
# human ether-à-go-go-related gene (hERG) potassium channel, sequence (Q12809 whole entry, looked up): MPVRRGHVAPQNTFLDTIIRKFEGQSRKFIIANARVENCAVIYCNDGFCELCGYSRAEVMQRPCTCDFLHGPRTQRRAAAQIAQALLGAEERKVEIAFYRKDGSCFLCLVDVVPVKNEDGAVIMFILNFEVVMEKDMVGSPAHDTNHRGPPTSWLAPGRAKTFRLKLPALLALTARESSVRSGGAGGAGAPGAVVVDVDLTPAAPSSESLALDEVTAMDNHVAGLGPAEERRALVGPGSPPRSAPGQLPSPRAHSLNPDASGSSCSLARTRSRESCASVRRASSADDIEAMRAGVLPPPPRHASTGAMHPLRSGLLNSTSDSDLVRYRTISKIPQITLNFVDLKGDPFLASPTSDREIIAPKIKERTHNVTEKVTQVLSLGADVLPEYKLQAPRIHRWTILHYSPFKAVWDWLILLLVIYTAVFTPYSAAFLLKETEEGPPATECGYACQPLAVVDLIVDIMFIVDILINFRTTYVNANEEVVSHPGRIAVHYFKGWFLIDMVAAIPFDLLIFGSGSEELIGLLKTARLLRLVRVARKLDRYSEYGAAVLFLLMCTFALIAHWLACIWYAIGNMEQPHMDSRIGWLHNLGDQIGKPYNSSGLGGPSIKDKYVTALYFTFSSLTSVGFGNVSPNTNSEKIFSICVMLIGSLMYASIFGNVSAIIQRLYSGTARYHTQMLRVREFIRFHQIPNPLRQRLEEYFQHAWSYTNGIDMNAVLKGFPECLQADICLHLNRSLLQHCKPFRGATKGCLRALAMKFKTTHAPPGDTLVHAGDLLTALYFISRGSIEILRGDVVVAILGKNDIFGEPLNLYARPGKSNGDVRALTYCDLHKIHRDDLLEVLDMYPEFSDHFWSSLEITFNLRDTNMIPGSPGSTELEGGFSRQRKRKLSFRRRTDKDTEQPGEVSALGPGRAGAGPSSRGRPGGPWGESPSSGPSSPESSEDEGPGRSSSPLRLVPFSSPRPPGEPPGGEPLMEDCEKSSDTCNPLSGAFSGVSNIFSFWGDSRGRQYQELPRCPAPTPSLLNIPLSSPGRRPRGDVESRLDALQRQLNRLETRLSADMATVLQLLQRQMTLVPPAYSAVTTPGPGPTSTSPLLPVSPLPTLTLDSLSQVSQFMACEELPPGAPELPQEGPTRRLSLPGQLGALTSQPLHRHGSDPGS
row,Compound,"hERG current change (%, negative = inhibition) at 10uM [%]"
1,CCOc1ccccc1N(CC(=O)NC1CCCCC1)C(=O)CCCC(=O)Nc1ccccn1,-7.16
2,O=C1C=C(NCCNc2c(F)c(F)c(CO)c(F)c2F)CCC1,4.27
3,COc1ccc(C(=O)Nc2ccc(NC(=O)c3cccs3)cc2)cc1Cl,27.5
4,CC1=C(C(=O)OC(C)C)C(c2ccc(C)o2)C(C(=O)OC(C)C)=C(C)N1,1.28
5,CCC(C)NC(=O)CC(C)C (centres unmarked),-1.24
6,CS(=O)(=O)c1ccc(NC(=O)C2CCCN(C(=O)c3ccc(Cl)cc3)C2)cc1 (centres unmarked),-47.7
7,COc1ccc(Nc2nc(Cl)nc(Nc3ccc(OC)cc3)n2)cc1,7.06
8,CCc1cc2ccccc2nc1SCC(=O)Nc1cc(C)on1,5.01
9,CSCCC(NS(=O)(=O)c1ccc2ccccc2c1)C(=O)OCC(=O)c1ccc(C(C)C)cc1 (centres unmarked),-1.53
10,CCOC(=O)C(Cc1ccccc1)NC(=O)Cn1nnc(-c2ccc(SC)cc2)n1 (centres unmarked),-4.56
11,COc1ccc(NC(=O)CCc2nnc3ccc(N4CCC5(CC4)OCCO5)nn23)cc1,-8.37
12,COc1ccc(CCNC(=O)c2cc(C3CC3)nc3c2cnn3C(C)C)cc1OC,-17.1
13,CCCCc1cc(=O)oc2cc(OC(C)C(=O)NCc3ccccn3)c(Cl)cc12 (centres unmarked),-13.6
14,CC1CCN(CCCNC(=O)c2ccc(N3CCCC3=O)cc2)CC1,-32.2
15,CCN(CC)S(=O)(=O)c1ccc(NS(=O)(=O)c2cccc(C)c2)cc1,-20.4
16,CCCC[C@H]1C2=C3[C@@H](CC(C(=O)OC)=C[C@@H](C(=O)OC)[C@H]3C(C)(C)C2=O)n2c(=O)n(-c3ccccc3)c(=O)n21,-26.5
17,O=C(Cc1ccccc1[N+](=O)[O-])OCC(=O)N1CCN(c2ccccc2)CC1,-6.16
18,C=CCn1c(SCC(=O)Nc2sccc2C(N)=O)nc2ccccc2c1=O,19.2
19,O=C(NCc1ccccn1)c1ccccc1OCc1ccc(F)cc1,-56.9
20,Cc1ccccc1S(=O)(=O)Cc1ccc(C(=O)NCCN2CCN(Cc3ccccc3)CC2)o1,-61.9
21,Cc1ccccc1-c1coc2cc(O)ccc2c1=O,-1.8
22,COc1ccccc1CNC(=O)CCC(=O)N1C[C@H]2C[C@@H](C1)c1cccc(=O)n1C2,-5.65

row,Compound,"hERG current change (%, negative = inhibition) at 10uM [%]"
1,COC(=O)CSc1cc(C)nc(SC)n1,-4.47
2,CC(C)(C)c1ccc(-c2nc(C=O)c3ccccn23)cc1,-23.7
3,CCOc1ccc(NC(=O)c2ccc(NC(=O)C3CCCO3)cc2)cc1 (centres unmarked),8.54
4,O=C(NCc1ccc(Cl)c(Cl)c1)c1ccco1,-14.5
5,CCCc1nnc(NC(=O)CCC(=O)N2CCN(S(=O)(=O)c3ccc(C)cc3)CC2)s1,13.8
6,COc1ccc(NC(=O)c2cn(-c3ccccc3)nc2SC)cc1,-8.55
7,O=C1CNC(=S)N1CCCc1ccccc1,-2.23
8,O=C(O)CCC(=O)Nc1ccccc1C(=O)N1CCN(c2ccc(Cl)cc2)CC1,11.7
9,COC(=O)c1ccc(CS(=O)(=O)c2ccc(F)cc2)o1,18.5
10,CCN(CC)CCSc1nc(O)c(-c2ccccc2)c(=O)[nH]1.Cl,6.19
11,Cc1ccc(NC(=O)N2C3CCCC2CC(NC(=O)C(C)(C)C)C3)cc1 (centres unmarked),10.1
12,CCOc1ccc(C(=O)Nc2cccc3nsnc23)cc1[N+](=O)[O-],5.23
13,COCCNCc1ccc(C(C)C)cc1.Cl,14
14,Cc1cc(C(=O)NNC(=S)NCC(C)C)cs1,-9.13
15,C[n+]1cccc(C2C(C#N)=C(N)Oc3c2ccc2ccccc32)c1.[I-] (centres unmarked),13.7
16,O=C(Nc1cccc(Cl)c1)OCc1cn(-c2ccc(Cl)cc2)nn1,1.69
17,N#CCSc1nc(-c2ccccc2)c2cc(Cl)ccc2n1,1.74
18,CC(C)N(CCc1ccncc1)C(=S)Nc1ccc(F)c(Cl)c1,-71.7
19,CC1(C)S[C@@H]2[C@H](NC(=O)C(NC(=O)N3CCNC3=O)c3ccccc3)C(=O)N2[C@H]1C(=O)O (some centres unmarked),14.2
20,O=C(CN1C(=O)CCC1=O)Nc1cccc(NC(=O)CN2C(=O)CCC2=O)c1,20.2
21,CCCC(C)C(=O)Nc1cc([N+](=O)[O-])ccc1F (centres unmarked),-0.69
22,Cc1ccc(C(=O)C2CCNCC2)cc1.Cl,-1.73
